# Values joined by “and” are separate entries in the source; they are usually repeats but may differ in a detail not shown here. Equal entries are not always repeated. This list was built around the results that the source calls inconclusive (neither active nor inactive); the mix of calls is not that of the screen. For some assays here: Potencies of inconclusive entries are left out as doubtful fits. Some compounds were tested as several samples or in several runs, with calls that do not always agree. Active and inactive are the calls of the source. Unless noted, calls come from the whole dose curve; as a rule, active = well fitted curve in the direction sought with a large enough effect; inconclusive = small, poorly fitted or top-dose-only effect, or another doubt; inactive = no such curve, though single readings can be large; an effect the other way counts as inactive or inconclusive.
# Tests used:
# [1] = target: Cytochrome P450 2C9 (Homo sapiens) (UniProt P11712); assay: Cytochrome P450 family 2 subfamily C member 9 (CYP2C9) small molecule antagonists: luciferase biochemical (cell-free) qHTS assay (AID 1645842; active = well fitted curve in the direction sought with a large enough effect in the repeat runs; inconclusive = weak or mixed curves; inactive = no such curve, though single readings can be large; an effect the other way counts as inactive or inconclusive; note: potency is the fitted concentration of half-maximal effect; nearly all actives have a fitted effect of over 55% in size)
# Chain of UniProt P11712 (P11712 whole entry, looked up): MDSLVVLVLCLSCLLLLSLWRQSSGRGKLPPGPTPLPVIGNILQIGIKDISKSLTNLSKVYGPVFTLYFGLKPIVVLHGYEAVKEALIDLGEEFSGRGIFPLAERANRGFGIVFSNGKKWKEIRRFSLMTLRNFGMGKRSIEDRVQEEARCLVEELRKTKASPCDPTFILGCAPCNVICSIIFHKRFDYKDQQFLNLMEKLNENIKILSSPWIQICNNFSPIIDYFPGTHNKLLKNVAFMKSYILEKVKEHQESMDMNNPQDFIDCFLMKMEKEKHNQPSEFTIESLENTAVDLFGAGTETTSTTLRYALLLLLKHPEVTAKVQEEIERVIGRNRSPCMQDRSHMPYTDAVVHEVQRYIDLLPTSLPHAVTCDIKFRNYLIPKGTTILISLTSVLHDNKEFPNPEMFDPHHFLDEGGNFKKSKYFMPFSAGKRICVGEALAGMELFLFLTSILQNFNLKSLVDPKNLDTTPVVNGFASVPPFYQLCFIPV
# Summary of the method: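 P450-Glo CYP2C9 system: proluciferin substrate with enzyme in mix containing 0.4% BSA, 10 min at room temperature, then NADPH regeneration solution added and incubated 1 h at 37C. Detection reagent stopped reaction; luminescence read after 20 min as RLU.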
# HaCat = assay: Cytotoxic Profiling of Annotated Libraries Using Quantitative High-Throughput Screening (AID 1296008); conditions: Five cell lines viability, CellTiter-Glo ATP luminescence, 48-72 h; max response: active compounds read low; note: nearly all actives have a fitted effect of over 60% in size; note: potency is the fitted concentration of half-maximal effect; for max response: % is set by controls: 0 for no effect and ±100 for the full control effect
# Summary of the method: (§1)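 Cells exposed to compounds for 48 or 72 hr at 37 degrees Celsius. Viability read as ATP-coupled luminescence with CellTiter-Glo after 10 min at room temperature.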
# KB-3-1 = assay: as above; conditions: Five cell lines viability, CellTiter-Glo ATP luminescence, 48-72 h; max response: active compounds read low
# Summary of the method: as §1
# NIH3T3 = assay: as above; conditions: Five cell lines viability, CellTiter-Glo ATP luminescence, 48-72 h; max response: active compounds read low
# Summary of the method: as §1
# CAOV3 = assay: Primary qHTS to identify gynecologic anti-cancer compounds using libraries of approved drugs and bioactive compounds (AID 1345084); conditions: Gynecologic cancer cell panel viability, ATPlite luminescence, 48 h; activity change, negative = cytotoxicity: at 57.5 µM (top of the series); note: nearly all actives have a fitted effect of over 55% in size; note: potency is the fitted concentration of half-maximal effect
# Summary of the method: (§2)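 Five-concentration response, 48 h; readout is ATP-driven luciferase luminescence.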
# CASKI = assay: as above; conditions: Gynecologic cancer cell panel viability, ATPlite luminescence, 48 h; series mostly up to 57.5 µM
# Summary of the method: as §2
# Es-2 = assay: as above; conditions: Gynecologic cancer cell panel viability, ATPlite luminescence, 48 h; series mostly up to 57.5 µM
# Summary of the method: as §2
# JEG-3 = assay: as above; conditions: Gynecologic cancer cell panel viability, ATPlite luminescence, 48 h; series mostly up to 57.5 µM
# Summary of the method: as §2
# OV90 = assay: as above; conditions: Gynecologic cancer cell panel viability, ATPlite luminescence, 48 h; series mostly up to 57.5 µM
# Summary of the method: as §2
# PA-1 = assay: as above; conditions: Gynecologic cancer cell panel viability, ATPlite luminescence, 48 h; series mostly up to 57.5 µM
# Summary of the method: as §2
# SKOV3 = assay: as above; conditions: Gynecologic cancer cell panel viability, ATPlite luminescence, 48 h; series mostly up to 57.5 µM
# Summary of the method: as §2
# [2] = P-glycoprotein substrates identified in KB-8-5-11 adenocarcinoma cell line, qHTS therapeutic library screen (AID 1346987); note: nearly all actives have a fitted effect of over 65% in size; note: potency is the fitted concentration of half-maximal effect
# Summary of the method: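 Human cervical adenocarcinoma KB-8-5-11 cells, selected in colchicine to over-express P-gp and assayed without it, were exposed for 72 h to titrated compounds. An ATP-based luminescent viability signal gave AC50.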
# [3] = system: Zika virus NS2B-NS3 protease (unlinked complex); assay: Primary screen GU Rhodamine qHTS for Zika virus inhibitors: Unlinked NS2B-NS3 protease assay (AID 1347159); note: nearly all actives have a fitted effect of over 60% in size; note: potency is the fitted concentration of half-maximal effect; for activity change, negative = inhibition: % is set by controls: 0 for no effect and ±100 for the full control effect
# Summary of the method: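 Percent inhibition came from the 15-min rise in Rhodamine110 fluorescence (1.5 microM substrate, ~15% conversion), normalized to no-inhibitor and no-enzyme wells and Hill-fitted. Unlinked protease, 25 nM, pH 8.0 Tris buffer; compounds up to 114 microM, 15-min preincubation.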
# [4] = Primary qHTS for inhibitors of nuclear receptor binding SET domain protein 2 (NSD2) in an RCH-ACV wild type WT cells (2C) (AID 1645877); conditions: activity change, negative = cell killing: at 44.9 µM (top of the series) unless noted; note: nearly all actives have a fitted effect of over 70% in size; note: potency is the fitted concentration of half-maximal effect; for activity change, negative = cell killing: % is set by controls: 0 for no effect and ±100 for the full control effect
# [5] = Primary redox qHTS assay for identification of artifact compounds. (AID 1845223); conditions: Amplex Red/HRP redox cycling with DTT, fluorescence; redox activity (% of DA3003): at 53.8 µM (top of the series); note: potency is the fitted concentration of half-maximal effect
# Summary of the method: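 Redox-cycling detection via DTT (250 uM final) oxidation coupled to Amplex Red (25 uM)/HRP (250 mU/mL) in HBSS. 15 min preincubation plus 30 min after DTT, room temperature. Ex/Em 525/598 nm; 4-parameter Hill fit against DMSO and 10 uM DA3003.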
# [6] = Primary fluorescence-based thiol-reactive (MSTI) qHTS assay for identification of artifact compounds. (AID 1845221); note: potency is the fitted concentration of half-maximal effect;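 note: thiol-reactive compounds lower the probe fluorescence signal; nearly all actives have a fitted effect of over 65% in size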
# Summary of the method: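 In PBS pH 7.4 with 2% DMSO, each compound met 4 uM MSTI for one hour at ambient temperature, shielded from light, before fluorescence detection.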
# HeLa = assay: Primary qHTS to identify gynecologic anti-cancer compounds using libraries of approved drugs and bioactive compounds (AID 1345084); conditions: Gynecologic cancer cell panel viability, ATPlite luminescence, 48 h; activity change, negative = cytotoxicity: at 57.5 µM (top of the series); note: nearly all actives have a fitted effect of over 55% in size; note: potency is the fitted concentration of half-maximal effect
# Summary of the method: as §2
# Hek293T = assay: as above; conditions: Gynecologic cancer cell panel viability, ATPlite luminescence, 48 h, control line for the selectivity index; activity change, negative = cytotoxicity: at 57.5 µM (top of the series) unless noted
# Summary of the method: as §2
# Tov-21-G = assay: as above; conditions: Gynecologic cancer cell panel viability, ATPlite luminescence, 48 h; activity change, negative = cytotoxicity: at 57.5 µM (top of the series) unless noted
# Summary of the method: as §2
# [7] = system: Zika virus NS2B-NS3 protease (linked construct); assay: Primary screen NINDS Rhodamine qHTS for Zika virus inhibitors (AID 1347160); conditions: activity change, negative = inhibition: at 57.1 µM (top of the series) unless noted; note: potency is the fitted concentration of half-maximal effect; nearly all actives have a fitted effect of over 55% in size
# Summary of the method: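 Rhodamine110-peptide cleavage (1.5 µM substrate) by 25 nM linked NS2B-NS3 enzyme at pH 8.0 (Tris, Tween 20), after 15 min RT preincubation with compounds; 15-min fluorescence change normalized to controls and Hill-fitted.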
# [8] = Primary qHTS for inhibitors of nuclear receptor binding SET domain protein 2 (NSD2) in an isogenic RCH-ACV NSD2 p.E1099K mutant (9B) (AID 1645876); note: potency is the fitted concentration of half-maximal effect; nearly all actives have a fitted effect of over 70% in size
# [9] = target: Glutathione peroxidase 1 (Homo sapiens) (UniProt P07203); assay: Primary qHTS Assay for Inhibitors of Recombinant Selenoprotein Glutathione Peroxidase 1 (GPX1) (AID 1845191); conditions: activity, negative = inhibition: at 48.8 µM (top of the series); note: nearly all actives have a fitted effect of over 65% in size; for activity, negative = inhibition: % is set by controls: 0 for no effect and ±100 for the full control effect
# Chain of UniProt P07203 (P07203 whole entry, looked up): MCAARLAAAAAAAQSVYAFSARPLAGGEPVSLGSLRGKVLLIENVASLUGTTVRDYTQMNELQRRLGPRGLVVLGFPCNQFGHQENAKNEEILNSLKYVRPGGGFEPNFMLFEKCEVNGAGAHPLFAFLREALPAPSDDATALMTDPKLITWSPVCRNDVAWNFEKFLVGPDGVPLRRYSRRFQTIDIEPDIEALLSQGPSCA
# Summary of the method: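 GR-coupled readout: NADPH consumption tracked by fluorescence, ex 340/em 450 nm, at t=0 and after 15 min at RT. Final mix 10 nM GPX1, 1 mM GSH, 0.5 mM CHP, 0.5 mM NADPH, 100 nM GR, 0.01% BSA, following 30 min enzyme–compound preincubation.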
# [10] = target: Phospholipid hydroperoxide glutathione peroxidase GPX4 (Homo sapiens) (UniProt P36969); assay: Primary qHTS Assay for Inhibitors of Recombinant Selenoprotein Glutathione Peroxidase 4 (GPX4) (AID 1845192); note: potency is the fitted concentration of half-maximal effect; nearly all actives have a fitted effect of over 65% in size
# Chain of UniProt P36969 (P36969 whole entry, looked up): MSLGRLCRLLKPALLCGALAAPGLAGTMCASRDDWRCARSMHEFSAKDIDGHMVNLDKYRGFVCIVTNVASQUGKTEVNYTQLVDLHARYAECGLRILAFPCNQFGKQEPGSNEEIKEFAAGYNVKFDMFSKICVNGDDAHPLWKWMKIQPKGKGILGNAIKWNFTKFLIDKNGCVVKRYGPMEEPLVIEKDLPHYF
# Summary of the method: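 Steps: GPX4 plus compound, 30 min RT; add GR/GSH/NADPH master mix; start with cumene hydroperoxide; read 340/450 nm fluorescence at 0 and 15 min. Finals were 200 nM GPX4, 1 mM GSH, 0.5 mM CHP, 0.5 mM NADPH, 100 nM GR.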
# [11] = qHTS assay to identify inhibitors of the type 1 interferon - major histocompatibility complex class I in skeletal muscle: Counter screen cell viability and HiBit confirmation (AID 1347412); conditions: iHSKM muscle cells + IFN-b, HiBiT or CellTiter-Glo, 24 h; note: potency is the fitted concentration of half-maximal effect; nearly all actives have a fitted effect of over 60% in size
# Summary of the method: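 Myoblasts (C25cl48, HLA-B HiBiT) seeded in medium without dexamethasone, IFN-b 4 ng/ml added except unstimulated columns; 1 hr later compounds pinned (12-pt 1:3, top 46 uM final). Incubated 24 hrs, lysed 10 min, luminescence measured.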
# [12] = qHTS of pediatric cancer cell lines to identify multiple opportunities for drug repurposing: Primary screen for SK-N-MC cells (AID 1347093); conditions: SK-N-MC viability, CellTiter-Glo luminescence, 48 h; activity change, negative = cytotoxic: at 46 µM (top of the series);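 note: plate controls were DMSO neutral control for no effect and bortezomib for full effect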
# Summary of the method: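 Metabolically active cells were quantified by ATP-dependent luminescence (CellTiter-Glo, 15 min at room temperature) following 48 h treatment. Cells had been plated at 500-1,000 per well and settled for 5 h beforehand.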
# [13] = qHTS of pediatric cancer cell lines to identify multiple opportunities for drug repurposing: Primary screen for LAN-5 cells (AID 1347100);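 note: plate controls were DMSO neutral control for no effect and bortezomib positive control for full effect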
# Summary of the method: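 Viability after 48 h compound treatment at 37C, 500-1,000 cells/well, read as ATP luminescence with CellTiter-Glo. Primary screens used 11-point (MIPE, 0.78 nM-46 µM) or 8-point (NPC, 0.59 nM-46 µM) final concentrations; follow-up screens used 11-point dilutions.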
# [14] = qHTS of pediatric cancer cell lines to identify multiple opportunities for drug repurposing: Primary screen for BT-12 cells (AID 1347101);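 note: plate controls were DMSO for no effect and bortezomib positive control for full effect; nearly all actives have a fitted effect of over 25% in size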
# Summary of the method: (§3)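 Cells (500-1,000/well) rested 5 h, then received compounds for 48 h; metabolically active cells were measured by CellTiter-Glo luminescence. Final concentrations spanned up to 46 µM (MIPE, 11-point) or 0.59 nM-46 µM (NPC, 8-point) in primary screens, 11-point in follow-ups.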
# [15] = qHTS of pediatric cancer cell lines to identify multiple opportunities for drug repurposing: Primary screen for OHS-50 cells (AID 1347103);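 note: plate controls were DMSO neutral control for no effect and bortezomib positive control for full effect; nearly all actives have a fitted effect of over 40% in size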
# Summary of the method: as §3
# [16] = Drug repurposing screens with cells derived from glioblastoma tumor samples (AID 1345199); conditions: GBM patient neurospheres viability, ATP luminescence, 48 h; Potency: tumour line A unless noted; activity, negative = cell killing: at 46 µM (top of the series), tumour line A unless noted; note: potency is the fitted concentration of half-maximal effect; nearly all actives have a fitted effect of over 40% in size
# Summary of the method: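 Primary testing used CD133+ neurospheres from four GBM patients, seven concentrations, 48 h exposure and ATP-based viability; confirmation added three slower-growing patient lines.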
# Tags give direction and shape of the fitted curve.
smiles,measurement,setting,value
CC(C)COc1ccc(CNC(=O)N(Cc2ccc(F)cc2)C2CCN(C)CC2)cc1,Potency,[1],"inconclusive [inhibitor, single point]"
same,Potency,HaCat,"inconclusive [inhibitor, partial curve, poor fit]"
same,Potency,KB-3-1,"inconclusive [inhibitor, single point]"
same,Potency,NIH3T3,"inconclusive [inhibitor, single point]"
same,Potency,CAOV3,"inconclusive [cytotoxic, partial curve, poor fit]"
same,Potency,CASKI,"inconclusive [cytotoxic, single point]"
same,Potency,Es-2,"inconclusive [cytotoxic, single point]"
same,Potency,JEG-3,"inconclusive [cytotoxic, partial curve, poor fit]"
same,Potency,OV90,"inconclusive [cytotoxic, single point]"
same,Potency,PA-1,"inconclusive [cytotoxic, single point]"
same,Potency,SKOV3,"inconclusive [cytotoxic, single point]"
CCS(=O)(=O)N1CCC([C@@H](C)n2c(C)c(C(=O)NCc3c(OC)cc(C)[nH]c3=O)c3ccccc32)CC1,Potency,[2],inactive
same,Potency,[3],inactive
same,Potency,[1],"inconclusive [inhibitor, partial curve]"
same,Potency,[4],inactive
same,Potency,[5],"inconclusive [activator, partial curve]"
same,outcome,HaCat,inactive
same,max response,KB-3-1,inactive: 9.76%
same,outcome,NIH3T3,inactive
COc1ccc(Oc2cc(C)c(-c3csc(NC(=O)c4ccncc4)n3)c(C)c2)cc1,Potency,[2],"inconclusive [inhibitor, partial curve]"
same,Potency,[3],"inconclusive [inhibitor, full curve, poor fit]"
same,Potency,[6],inactive
same,Potency,HaCat,"inconclusive [inhibitor, partial curve]"
same,Potency,KB-3-1,active: 0.146 µM
same,Potency,NIH3T3,"inconclusive [inhibitor, partial curve, poor fit]"
same,Potency,CASKI,active: 0.891 µM
same,Potency,Es-2,"inconclusive [cytotoxic, partial curve]"
same,Potency,HeLa,"inconclusive [cytotoxic, single point]"
same,Potency,Hek293T,"inconclusive [cytotoxic, full curve]"
same,Potency,JEG-3,"inconclusive [cytotoxic, single point]"
same,Potency,OV90,"inconclusive [cytotoxic, full curve, poor fit]"
same,Potency,PA-1,"inconclusive [cytotoxic, full curve, poor fit]"
same,Potency,SKOV3,active: 1 µM
same,Potency,Tov-21-G,"inconclusive [cytotoxic, partial curve, poor fit]"
Cc1cc(Nc2ncc(Cl)c(Nc3ccccc3S(=O)(=O)C(C)C)n2)c(OC(C)C)cc1C1CCNCC1,Potency,[2],active: 6.51 µM
same,Potency,[7],"inconclusive [inhibitor, partial curve, poor fit]"
same,Potency,[8],active: 3.25 µM and active: 5.25 µM
same,Potency,[4],active: 2.9 µM and active: 3.72 µM
same,Potency,[9],inactive
same,Potency,[10],"inconclusive [inhibitor, full curve]"
same,Potency,HaCat,"inconclusive [inhibitor, single point]"
same,Potency,KB-3-1,active: 18.4 µM
same,Potency,NIH3T3,active: 23.4 µM
same,Potency,JEG-3,inactive
same,Potency,OV90,"inconclusive [cytotoxic, full curve, poor fit]"
same,Potency,SKOV3,"inconclusive [cytotoxic, full curve, poor fit]"
same,Potency,[11]; HiBiT,"inconclusive [inhibitor, single point]"
same,Potency,[11]; Viability,active: 27.9 µM
COC(=O)CCc1ccc(OCC(O)CNC(C)C)cc1 (configuration not stated),Potency,[12],inactive
same,Potency,[13],inactive
same,Potency,[14],inactive
same,Potency,[15],inactive
same,max response,HaCat,inactive: -0.177%
same,outcome,HaCat,inactive
same,Potency,PA-1,"inconclusive [cytotoxic, partial curve, poor fit]"
same,Potency,[16],"inconclusive [inhibitor, partial curve]"
COc1ccc(C(=O)N(CCC(C)C)Cc2nc(C)c(C)n2Cc2ccccc2C)c(OC)c1,Potency,[2],"inconclusive [inhibitor, partial curve]"
same,Potency,[6],"inconclusive [inhibitor, full curve]"
same,Potency,HaCat,"inconclusive [inhibitor, single point]"
same,Potency,KB-3-1,"inconclusive [inhibitor, partial curve, poor fit]"
same,Potency,NIH3T3,"inconclusive [inhibitor, partial curve, poor fit]"
same,Potency,HeLa,inactive
